Assay results: PubChem BioAssay AID493208 (National Center for Advancing Translational Sciences (NCATS), 2011)
The whole screen tested about 44,000 compounds, of which about 340 (0.77%) were called active. Roughly 5% stayed inconclusive and do not appear here. The call rests on the fitted dose curve; in most records, active means well fitted inhibition curve with a large enough effect; inconclusive means small, poorly fitted or top-dose-only effect; inactive means flat fitted curve, though single readings scatter. Some of the results follow.

Assay: Acumen qHTS Assay for Inhibitors of the mTORC1 Signaling Pathway in MEF (Tsc2-/-, p53-/-) Cells: Sytravon; further: nearly all actives have a fitted effect of over 50% in size;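 on activity change, negative = inhibition: plate controls were DMSO for no effect and rapamycin for full effect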
Settings: phospho-rpS6 immunofluorescence/PI, 24 h; series mostly up to 38.3 µM; activity change, negative = inhibition: at the top concentration
Procedure, shortened: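 Read-out: phospho-S6 Alexa-488 intensity over PI intensity per well, scored as % active cells using thresholds from rapamycin (7.5 nM) and DMSO controls. Tsc2-/-, p53-/- MEFs exposed to compound for 24 h; PI cell count recorded as viability.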
Potency means the concentration at half of the fitted maximal effect.

Activity change, negative = inhibition, inactive:
CCCNC(=O)C1CCN(c2ncnc3c2nc2n3CCCCC2)CC1 0.422%
CCCC(=O)NCC(c1ccc2c(c1)OCO2)N1CCN(c2ccccc2)CC1 (stereo not drawn) -3.02%
CCOC(=O)N1CCc2c(sc(NCc3ccc(OC)c(OC)c3OC)c2C(=O)Nc2ccc(OC)cc2OC)C1 -7.7%
CCc1ccc(-n2c(=O)c3sc4ccccc4c3n(Cc3cccc(F)c3)c2=O)cc1 -0.964%
CCCCCOc1ccc(/C=C/C(=O)Nc2sc(C(C)=O)c(C)c2C(=O)OCC)cc1OC -10.3%
CCc1nnc(NC(=O)c2nc(SCc3ccccc3C)ncc2Cl)s1 2%
Cc1oc(C)c2c(=O)cc(-c3ccc4c(c3)OCO4)cc(OC(=O)c3ccccc3Cl)c12 0%
Cc1c(Cl)cccc1NC(=O)Cn1c(=O)nc(-c2ccccc2)c2ccccc21 0%
COc1ccc(C2=CC(c3ccccc3F)n3ncc(C(=O)Nc4ccc(C)cc4)c3N2)cc1 (stereo not drawn) -4.44%
CCN(CC)C(=O)c1sc(NC(=O)C(C)Sc2nc(-c3ccccc3)cc(C(F)(F)F)n2)c(C(=O)OC)c1C (stereo not drawn) 1%
CCC(=O)Nc1ccc(S(=O)(=O)NCc2ccc3c(c2)CCN3C(=O)c2ccc(C)cc2)cc1 -10.8%
COC(=O)c1ccccc1NC(=O)CCC(=O)N1CCOc2ccccc21 4.63%
Cc1cccc(-c2c3c(=O)n(C)c(=O)n(C)c3cn2-c2cc(N)c(Cl)cc2Cl)c1 -11.5%
CN(C)c1oc(/C=C/c2ccc(F)cc2)nc1C#N -4.07%
CCN(c1ccccc1)c1nnc(NC(=O)Nc2cccc(Cl)c2C)s1 2.42%
CC(=O)c1ccc(NC(=O)Nc2nnc(N3CCCC(C)C3)s2)cc1 (stereo not drawn) -0.0685%
CSc1ccc(-c2nc3ncccn3c2Nc2ccc(C)c(C)c2)cc1 -12.8%
Nc1cc(=O)nc(SCC(=O)Nc2cccc(Cl)c2)n1CCc1ccccc1 -0.639%
Cc1nc2c(C(=O)NCCc3ccccc3)cnn2c(C)c1Cc1c(F)cccc1Cl 3.13%
Cc1c2cnn(CC(=O)NCc3ccc(F)cc3)c(=O)c2c(C)n1Cc1ccccc1F -9.85%
CC(C)(C)OC(=O)N1CCC(c2c(C(=O)NCc3cccs3)cnn2-c2ccc(F)cc2F)CC1 3.77%
COc1ccc(Cl)cc1Nc1ncnc2c1c(-c1ccccc1)cn2-c1ccccc1 -21.5%
CCOCCCNC(=O)c1cc2c(-c3ccc(OC)c(OC)c3)nn(C)c2s1 4.91%
COCCN1CCc2nc(SCC(=O)Nc3ccc(Br)cc3)[nH]c(=O)c2C1 -8.58%
COc1ccc(NC(=O)Nc2sc3nc4n(c(=O)c3c2C)CCC(C)CC4)cc1OC (stereo not drawn) 1.67%
NC(=O)C1(N2CCCCC2)CCN(C(=O)Nc2ccc(C(F)(F)F)cc2)CC1 4.06%
Cc1ccc(NCc2ccccc2-c2nnc(-c3ccccc3Cl)o2)c(C)c1 -9.41%
COc1ccccc1-c1cc(C(F)(F)F)nc(S(=O)(=O)CCCC(=O)Nc2cc(OC)c(OC)c(OC)c2)n1 0%
Cc1cc(C)c2c(=O)cc(CSc3nnc(COc4ccccc4C)n3C)[nH]c2c1 2.77%
Cc1ccc2c(c1)c1c(c(=O)n(-c3ccccc3C)c(=O)n1CC(=O)NCc1ccccc1)n2C -7.06%
O=c1cc(-c2ccccc2)c2cc(Cl)c3c(c2o1)CN(Cc1ccccc1)CO3 6.15%
COc1ccc(CC(=O)NCc2ccc3c(c2)CCN3C(=O)c2ccc(Cl)cc2)cc1OC -3.91%
Cc1cc(-c2ccc(C)c(S(=O)(=O)N(C)c3ccc(C)c(C)c3)c2)on1 -13.2%
COc1ccccc1NC(=O)Cn1c(=O)n(Cc2ccco2)c(=O)c2cccnc21 -2.39%
CCOC(=O)c1c(Oc2ccc(OC)cc2)nnc(-c2ccccc2)c1-c1ccccc1 -1.81%
Cc1ccc(OCCCn2c(CCNC(=O)C3CCCCC3)nc3ccccc32)c(C)c1 -0.576%
COc1ccc(OC)c(NC(=O)CN2C(=O)c3ccccc3Sc3ccc(C(=O)N4CCCC4)cc32)c1 -11.7%
COc1ccc(N(Cc2cccs2)C(=O)Nc2ccccc2)cc1 -3.83%
Cn1cnnc1SCC(=O)Nc1cc(C(=O)O)cc(C(=O)O)c1 1.12%
Cc1nn(CC(=O)NC2CCCCC2)c(=O)c2cc3cc(F)ccc3n12 0.714%
Cc1cccc(C(=O)NCC(c2ccc3c(c2)OCO3)N2CCN(c3ccccc3F)CC2)c1 (stereo not drawn) -3.4%
COc1cc(-c2noc(CSc3nc(-c4ccccc4)cc(=O)[nH]3)n2)cc(OC)c1OC -7.39%
COc1ccc(NC(=O)c2sc3nc4c(cc3c2N)CN(C(C)C)CC4)c(OC)c1 -1.35%
Cc1cc(=O)n2[nH]c(NCc3ccc(F)cc3)nc2n1 -4.38%
Cc1ccc(-n2nc(C)c3c(C)cc(=O)n(CC(=O)Nc4ccc(Br)cc4F)c32)cc1 -1.04%
COc1ccc(S(=O)(=O)c2c(Nc3ccc(C)cc3)sc(C(=O)c3ccc(C)cc3)c2N)cc1 3.3%
O=C(CCCn1c(=O)c2cccn2c2ccc(F)cc21)NCCc1ccccc1 -10.2%
CCOC(=O)CSc1nc2ccc(NC(=O)c3ccc(F)cc3)cc2s1 -20.2%
Cc1ccc(Cl)cc1NC(=O)Nc1c(C)n(C)n(-c2ccccc2)c1=O 12.5%
Cc1ccc(CSCC(=O)NCc2ccc(F)cc2)cc1 16.8%
COc1ccc(NC(=O)Cn2cc(S(=O)(=O)c3ccc(C)cc3)c(=O)c3ccccc32)cc1OC -15%
COc1ccc(-c2noc(-c3ccc(NCc4ccco4)c([N+](=O)[O-])c3)n2)cc1 -1.68%
CCOC(=O)c1cccc(NC(=O)CCc2c(C)nc3cc(-c4ccc(Cl)cc4)nn3c2C)c1 -1.61%
CC1=C(C(=O)Nc2cccnc2)C(c2cccc(O)c2)n2nc(SCc3ccccc3)nc2N1 (stereo not drawn) 3.36%
Cc1cc(C)c(Cn2c(CCNC(=O)c3ccco3)nc3ccccc32)c(C)c1 -15%
CCCn1c(=O)n(-c2cc(Cl)c(OC)cc2OC)c(=O)c2c3c(sc21)CN(C(C)=O)CC3 -0.318%
Cc1ccc([C@H]2Nc3ccc(S(=O)(=O)Nc4cccc(Cl)c4C)cc3[C@H]3C=CC[C@H]32)cc1 -19.8%
CCn1cc(CCC(=O)NCc2ccc(F)cc2)c2ccccc21 -4.44%
Cc1ccc(Nc2nnc(-c3ccc(C)c(S(=O)(=O)N4CCN(C)CC4)c3)c3ccccc23)c(C)c1 -24.9%
CCCN(C(=O)c1nn(-c2ccc(OC)c(Cl)c2)c(=O)c2c1c1ccccc1n2C)c1ccccc1F 0.125%
COc1ccc(OC)c(NC(=O)Cn2cnc3sc(C)c(S(=O)(=O)N4CCN(c5ccccc5OC)CC4)c3c2=O)c1 2.79%
CCOc1ccccc1CNC(=O)C1CCN(C2=NS(=O)(=O)C(c3ccc(C)c(C)c3)=C2C)CC1 -8.35%
COc1ccc(C(=O)N2CCC(c3nc4ccccc4o3)CC2)cc1 0.42%
CCOc1ccc(C(=O)NCCc2csc(-c3ccc(C(F)(F)F)cc3)n2)cc1OCC -0.0367%
COc1ccc(C(=O)Nc2cc(C(C)C)c(O)c(S(=O)(=O)c3ccc(OC)cc3)c2C)cc1 11.7%
c1ccc(Cc2nnc(SCc3nc(-c4cccs4)no3)n2-c2ccccc2)cc1 -4.15%
Cc1ccccc1N1CCN(S(=O)(=O)c2nnc(NC(=O)c3ccccc3)s2)CC1 1.54%
COc1ccc(S(=O)(=O)c2c(Nc3ccc(F)cc3)sc(C(=O)c3ccc(C)cc3C)c2N)cc1 -1.83%
COc1cccc(NC(=O)c2sc3nc(C)c(C(=O)Nc4ccc(C)cc4C)c(-c4sccc4C)c3c2N)c1 -15.4%
O=c1c2oc3ccccc3c2n(Cc2cccc(F)c2)c(=O)n1Cc1ccco1 -1.57%
CC(C)c1ccc2oc(-c3cc(NC(=O)c4cccs4)ccc3Cl)nc2c1 -1.59%
Cc1ccc(Cl)cc1N1CCN(C(=O)C2CCCN(S(=O)(=O)c3ccc(Br)s3)C2)CC1 (stereo not drawn) 2.85%
COc1ccccc1NC(=O)CCn1cnc2ccccc2c1=O -4.42%
Cc1ccc2nc(-c3ccc(Cl)c(NC(=O)c4cccnc4)c3)oc2c1 3.43%
CN(C(=O)c1cc2c(=O)oc3ccccc3c2s1)c1ccc(F)cc1 0.0831%
CCOc1ccc(NC(=O)CSc2nccn2-c2cccc(C)c2C)cc1 -5.5%
CC(=O)N1CCCc2cc(S(=O)(=O)N3CCCCC3)ccc21 -1.52%
CCOc1ccccc1CNC(=O)c1cc2c(=O)n(Cc3ccccc3)ccc2nc1C -1.6%
CCCCn1c2ccc(F)cc2c2nnc(SCCN3CCCCC3)nc21 -0.811%
CCOC(=O)C1CCN(S(=O)(=O)c2cc(-c3onc(C)c3C)ccc2OC)CC1 6.32%
Cc1ccc(OCC(=O)NCC(=O)OCc2cc(=O)n3nc(C)sc3n2)cc1 -0.134%
COc1ccc(CCNC(=O)CSc2ncc3c(n2)-c2cc(Cl)ccc2N(Cc2ccccc2)S3(=O)=O)cc1OC -2.12%
COc1ccc(CNC(=O)c2ccc3c(c2)N(Cc2cccc(Cl)c2)C(=O)c2ccccc2S3)c(OC)c1 4.69%
CC(C)c1ccc(NC(=O)CSC2=Nc3ccccc3C3=NC(CC(=O)NCc4ccc(F)cc4)C(=O)N23)cc1 (stereo not drawn) -6.75%
COCCCNC(=O)CCn1c(=O)c2ccccc2n(CC(=O)Nc2c(C)cc(C)cc2C)c1=O -4.54%
Cc1cccn2c(Nc3ccccc3)c(-c3ccc(N4CCOCC4)cc3)nc12 -31.9%
Cc1ccc(-n2c(=O)c3cccnc3n2CC(=O)Nc2cccc(C)c2C)cc1 2.17%
CC(C)c1ccc(OC(=O)c2cc(-c3ccc4c(c3)OCCO4)on2)cc1 -4.1%
CCOc1ccc(C(=O)Nc2nnc(SCc3cc(=O)c4cc(C)ccc4[nH]3)s2)cc1 -1.62%
COc1cccc2sc(N(Cc3cccnc3)C(=O)COc3ccccc3)nc12 -5.91%
Cc1nn(-c2ccccc2)c(OC(=O)c2ccccc2F)c1S(=O)(=O)c1ccccc1 -14.7%
COc1cccc(N2CCN(C(=O)c3cccc(NC(=O)c4nsc5ccccc45)c3)CC2)c1 -6.88%

Potency, active:
CCS(=O)(=O)c1ncc(Cl)c(C(=O)N2CCN(c3cccc(Cl)c3)CC2)n1 2.61 µM
